Screen size: about 310,000 compounds; about 2,200 (0.71%) showed an effect of 50% or more. The effect is printed as a negative number. The list shows a part of the results.

The values below come from paper PMC4336329 (PLoS ONE, 2015).

For the assay, the target named is human ether-à-go-go-related gene (hERG) potassium channel (human, UniProt Q12809). The assay can be described thus: primary screen, population patch clamp on CHO cells stably expressing hERG.
human ether-à-go-go-related gene (hERG) potassium channel, sequence (Q12809 whole entry, looked up): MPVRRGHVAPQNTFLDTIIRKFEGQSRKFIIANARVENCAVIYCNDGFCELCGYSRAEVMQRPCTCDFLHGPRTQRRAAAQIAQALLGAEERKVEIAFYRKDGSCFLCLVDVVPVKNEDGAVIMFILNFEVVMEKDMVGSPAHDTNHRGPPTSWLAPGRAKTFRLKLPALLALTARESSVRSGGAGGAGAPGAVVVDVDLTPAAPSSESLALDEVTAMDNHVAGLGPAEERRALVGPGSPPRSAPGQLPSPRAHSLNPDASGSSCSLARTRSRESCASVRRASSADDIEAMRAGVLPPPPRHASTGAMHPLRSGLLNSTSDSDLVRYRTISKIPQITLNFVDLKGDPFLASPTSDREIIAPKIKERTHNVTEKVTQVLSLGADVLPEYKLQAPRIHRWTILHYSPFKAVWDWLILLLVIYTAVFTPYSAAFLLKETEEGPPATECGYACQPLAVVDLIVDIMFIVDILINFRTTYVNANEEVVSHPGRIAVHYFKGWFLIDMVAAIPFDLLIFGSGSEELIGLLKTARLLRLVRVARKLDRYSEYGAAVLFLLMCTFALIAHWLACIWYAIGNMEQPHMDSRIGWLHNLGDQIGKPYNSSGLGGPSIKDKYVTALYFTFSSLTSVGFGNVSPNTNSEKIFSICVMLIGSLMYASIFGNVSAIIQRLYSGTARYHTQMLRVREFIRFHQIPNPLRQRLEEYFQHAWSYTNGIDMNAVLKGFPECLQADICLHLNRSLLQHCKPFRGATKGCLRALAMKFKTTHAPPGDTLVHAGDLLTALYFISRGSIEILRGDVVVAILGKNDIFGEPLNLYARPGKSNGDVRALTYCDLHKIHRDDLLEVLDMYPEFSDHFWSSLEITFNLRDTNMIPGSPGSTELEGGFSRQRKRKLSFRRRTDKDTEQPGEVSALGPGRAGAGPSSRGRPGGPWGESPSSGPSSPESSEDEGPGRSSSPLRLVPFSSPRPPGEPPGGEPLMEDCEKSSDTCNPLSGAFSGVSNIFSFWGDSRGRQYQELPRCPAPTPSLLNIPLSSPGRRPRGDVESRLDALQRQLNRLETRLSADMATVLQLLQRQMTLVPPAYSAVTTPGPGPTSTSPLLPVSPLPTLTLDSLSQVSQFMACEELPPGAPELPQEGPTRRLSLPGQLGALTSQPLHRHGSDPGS
As for `O=C(CCN1CCOCC1)N1CCCC(Nc2cccc(F)c2)C1` (stereo not drawn), the “hERG current change (%, negative = inhibition) at 1uM” value was found to be 4.08%.
Turning to `O=C1COc2ccc(C(=O)COC(=O)/C=C/c3ccc(Br)o3)cc2N1`, the “hERG current change (%, negative = inhibition) at 1uM” value is recorded as 0.254%.
For `Cc1ccc(C2CC(=O)NC(SCC(N)=O)=C2C#N)s1` (stereo not drawn), the “hERG current change (%, negative = inhibition) at 1uM” value is reported as 6.74%.
Then `CN(CCOc1ccccc1)C(=O)C1CCC(=O)N(CCCN2CCCC2=O)C1` (stereo not drawn), with 24.8%; and `Cc1ccc(C(=O)N/C(=C\c2ccc3c(c2)OCO3)C(=O)Nc2ccc(C(=O)O)cc2)cc1`, with 6.19%; and `CC(C)Cc1ccc(S(=O)(=O)Nc2cccnc2)cc1`, with 8.73%.
For `COC(=O)c1ccn(CSc2c(F)c(F)cc(F)c2F)n1` the value was 11.8%; for `Nc1nc(Br)c2c(F)cccc2c1-c1ccc(Cl)cc1`, -14.6%.
Then `Cc1cccc(C)c1-n1c(C)nn(Cc2ccc([N+](=O)[O-])cc2)c1=O`, with -0.849%; and `CC(C)c1ccc(Nc2ccc(C(=O)O)cc2[N+](=O)[O-])cc1`, with 18.8%.
Take `COC(=O)c1ccc(COc2cc([N+](=O)[O-])cc3cccnc23)cc1`: the “hERG current change (%, negative = inhibition) at 1uM” value came to 20.7%.
For `COC(=O)C1=C[C@@H](C(=O)OC)[C@@H]2C3=C(C(=O)[C@]2(CC(C)C)NC(=O)c2ccccc2)[C@H](C)n2c(=O)n(-c4ccccc4)c(=O)n2[C@@H]3C1` the value was 8.34%; for `CN(C(=O)COC(=O)c1cc(Br)c(Br)s1)C1CCS(=O)(=O)C1` (stereo not drawn), 0.432%.
For `COc1cccc(C(=O)N2CCN(Cc3ccc(OC)cc3OC)CC2)c1.O=C(O)C(=O)O` the value was 1.53%; for `Cc1cccc(C(=O)N2CCc3cc(-c4nc(NC(=O)CN5CCCC5)sc4C)ccc32)c1`, 5.02%; for `Cc1ccc(C)c(OCCC(=O)NNC(=O)Cn2nc(C)cc2C)c1`, 17.5%.
Then `CCc1nnc(NC(=O)c2ccc(OC)cc2OC)s1`, with 14.5%.
As for `Cn1cc(S(=O)(=O)N2CCCC2)cc1C(=O)N1CCN(c2ccccc2)CC1`, the “hERG current change (%, negative = inhibition) at 1uM” value was -4.2%.
Take `CCN1CCN(CCC(=O)Nc2ccc(Br)cc2)CC1.Cl`: the “hERG current change (%, negative = inhibition) at 1uM” value is on record as -4.85%.
Then `N#Cc1ccccc1OCC(=O)NCC1(N2CCCCC2)CCCCC1`, with 2.59%; and `CCN(c1ccc(NC(=O)c2ccc(N3CCCC3=O)cc2)cc1)C(C)C`, with -4.5%.
Consider `COc1ccc(C(CC(=O)Nc2cc(C)ccn2)N2Cc3ccccc3C2=O)cc1` (stereo not drawn), for which the “hERG current change (%, negative = inhibition) at 1uM” value amounted to 14.8%.
Then `CC(C)(C)c1ccc(C(=O)N2CCCN(c3ccc([N+](=O)[O-])cn3)CC2)cc1`, with -6.87%; and `O=C(NCc1ccc(F)cc1)c1cccc2c1C(=O)N(Cc1cccnc1)C2`, with -17%.
As to `Cc1cc(C)nc(NS(=O)(=O)c2cccs2)c1`, the “hERG current change (%, negative = inhibition) at 1uM” value is recorded as 11.1%.
For `Cn1ncc(Cl)c1C(=O)N1CCOCC1` the value was 10.2%.
Then `O=C(CNC(=O)c1cccs1)NCC(=O)OCC(=O)c1ccc([N+](=O)[O-])cc1`, with 5.43%.
For `Cn1c(SCC(=O)Nc2ccc(N3CCOCC3)cc2)nnc1C(F)(F)F` the value was 13.7%; for `COc1ccc(Cc2nc3ccc(C(=O)NC(C)c4cn(C)nc4C)cc3o2)cc1` (stereo not drawn), 9.59%.
With `COc1ccc(C2CC(c3ccc(Cl)cc3Cl)n3nc(N)nc3N2)cc1` (stereo not drawn), the “hERG current change (%, negative = inhibition) at 1uM” value was found to be 3.63%.
For `CCN1CC(CN(C)Cc2nc(Cc3ccccc3)no2)CC1=O` (stereo not drawn), the “hERG current change (%, negative = inhibition) at 1uM” value is 3.51%.
`CC(=O)c1c(N2CCN(C(=O)c3ccco3)CC2)nc(=S)n(-c2ccccc2)c1C`: the “hERG current change (%, negative = inhibition) at 1uM” value stood at 4.55%.
For `Cn1cnc2nc3n(c2c1=O)CCC3` the value was 5.69%.
For `O=c1nc2c(-c3cccc(Br)c3)n[nH]n2c2ccccc12` the value was 6.61%.
`CCOC(=O)c1c(C)n(C)c2ccc(OC)c(NC(=O)CN3CCCCC3)c12`: the “hERG current change (%, negative = inhibition) at 1uM” value amounted to 2.9%.
For `O=C1c2ccccc2C(=O)N1c1cc([N+](=O)[O-])ccn1` the value was 17%; for `Cc1ccc2c(c1)cc(CN(Cc1ccc3c(c1)OCO3)S(=O)(=O)c1ccccc1)c1nnnn12`, 16.7%.
Then `CC1Cc2cc(/C=C3/SC(N4CCC(C(N)=O)CC4)=NC3=O)ccc2O1` (stereo not drawn), with 9.18%.
Then `Cc1ccc(CNC(=O)CCNS(=O)(=O)c2ccc(Br)s2)cc1`, with 16.9%.
Consider `Cc1cccc(-n2ccnc2SCC(=O)c2c(N)n(C3CC3)c(=O)[nH]c2=O)c1C`, for which the “hERG current change (%, negative = inhibition) at 1uM” value amounted to 0.846%.
With `COC(=O)c1ccc(OC(=O)c2cccnc2)cc1`, the “hERG current change (%, negative = inhibition) at 1uM” value was found to be 19.8%.
For `COc1ccc(C(=O)OCC(=O)NCc2ccccc2)c(OC)c1OC` the value was 11.1%.
For `CC1CC(C)CN(C(=O)Nc2ccc(Br)cc2)C1` (stereo not drawn) the value was 6.78%; for `CCCCNC(=O)[C@@H]1CC=C[C@@H]2CCN(C3CC3)C(=O)[C@@H]21`, 13.2%; for `Cc1c(C(=O)N2CC[C@@H](N3CCC(O)CC3)[C@H](O)C2)[nH]c2ccc(Cl)cc12`, 10.2%.
For `CN1CCN(S(=O)(=O)c2cccc(C(=O)N3CCc4ccccc43)c2)CC1` the value was -4.92%; for `COc1cccc(C(=O)NC2CC3CCCC(C2)N3CC(=O)Nc2ccccc2C(F)(F)F)c1` (stereo not drawn), 14.8%; for `Nc1ccc(C#Cc2c(-c3ccsc3)oc3ccc(N4CCOCC4)cc23)cc1`, 8.71%.
For `O=C(CC1C(=O)NCCN1Cc1ccc(F)cc1)NCCN1CCCc2ccccc21` (stereo not drawn), the “hERG current change (%, negative = inhibition) at 1uM” value was -30.9%.
Then `COc1ccc(S(=O)(=O)N(c2onc(C)c2Cl)S(=O)(=O)c2ccc(OC)c(OC)c2)cc1OC`, with 14.6%.
For `CSc1ccc(CN2CCC(n3nccc3NC(=O)c3ccccc3C)CC2)cc1` the value was -83.8%; for `O=C(Nc1cccc(F)c1)Nc1c[nH]c(=O)[nH]c1=O`, 9.77%; for `Cc1ccc(C)c(NC(=O)Cn2nnc(C(=O)NCc3cccs3)c2N)c1`, 12.3%.
For `COc1ccc2c(=O)cc(-c3ccccc3)n(C)c2c1` the value was 3.76%.
